Reference: the supplement of paper PMC4604168 (melanoma cell lines)
This is one part of the list. Most values come without repeats; read them as rough.

Legend:
Test in all cases: cell count relative to DMSO control; melanoma cells; higher = more viable cells
Details in all cases: library dose: standard library concentration; 72 h
[1] = test system: G361
[2] = test system: IPC-298
[3] = test system: IST-MEL1
[4] = test system: LB2518-MEL
[5] = test system: LOXIMVI
[6] = test system: MEL-HO
[7] = test system: MZ2-MEL
[8] = test system: MeWo
[9] = test system: RPMI7951
[10] = test system: RVH-421
[11] = test system: SkMel28
[12] = test system: SkMel2
[13] = test system: SkMel30
[14] = test system: SkMel5
[15] = test system: UACC257
[16] = test system: UACC62
[17] = test system: WM115
[18] = test system: WM1716
[19] = test system: WM1745
[20] = test system: WM3526
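Note: cells treated in 1,536-well plates, then fixed and DAPI-stained, with nuclei counted from automated high-throughput microscope images.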

Row | Compound | cell count [1] [%] | cell count [2] [%] | cell count [3] [%] | cell count [4] [%] | cell count [5] [%] | cell count [6] [%] | cell count [7] [%] | cell count [8] [%] | cell count [9] [%] | cell count [10] [%] | cell count [11] [%] | cell count [12] [%] | cell count [13] [%] | cell count [14] [%] | cell count [15] [%] | cell count [16] [%] | cell count [17] [%] | cell count [18] [%] | cell count [19] [%] | cell count [20] [%]
1 | Cc1cc(Nc2cc(N3CCN(C)CC3)nc(Sc3ccc(NC(=O)C4CC4)cc3)n2)n[nH]1 [Tozasertib] + COc1cc2c(Oc3ccc4[nH]c(C)cc4c3F)ncnc2cc1OCCCN1CCCC1 [cediranib] (first compound 0.03 µM, partner dose 2 µM) | 70.3 | 104 | 106 | 66.8 | 58.2 | 115 | 83 | 75.4 | 67.2 | 76.6 | 49.7 | 82.4 | 99.7 | 67.9 | 83.3 | 58 | 38.3 | 73.8 | 49.4 | 85.4
2 | CC[C@]1(O)C[C@H]2CN(CCc3c([nH]c4ccccc34)[C@@](C(=O)OC)(c3cc4c(cc3OC)N(C=O)[C@H]3[C@@](O)(C(=O)OC)[C@H](OC(C)=O)[C@]5(CC)C=CCN6CC[C@]43[C@@H]65)C2)C1 [vincristine] + COc1ccc(C2=N[C@@H](c3ccc(Cl)cc3)[C@@H](c3ccc(Cl)cc3)N2C(=O)N2CCNC(=O)C2)c(OC(C)C)c1 [Nutlin-3] (first compound 0.0005 µM, partner dose 0.5 µM) | 77.7 | 99.1 | 89.3 | 77.9 | 56.8 | 81.6 | 98.6 | 99.3 | 62.6 | 64.5 | 62.4 | 94.6 | 71.8 | 59.5 | 83 | 55.4 | 61.7 | 45 | 75 | 61.5
3 | Cc1cc(Nc2cc(N3CCN(C)CC3)nc(Sc3ccc(NC(=O)C4CC4)cc3)n2)n[nH]1 [Tozasertib] + Oc1cc(-c2nc(-c3ccccc3)[nH]c2-c2ccncc2)ccc1Cl [L779450] (first compound 0.03 µM, partner dose 1 µM) | 47.7 | 69.2 | 69.7 | 70.8 | 82.1 | 79.8 | 75.2 | 60.2 | 86.8 | 73.5 | 23.3 | 20.1 | 94.4 | 51.4 | 80.4 | 55.4 | 39.1 | 60.9 |  | 41.9
4 | Cc1cc(Nc2cc(N3CCN(C)CC3)nc(Sc3ccc(NC(=O)C4CC4)cc3)n2)n[nH]1 [Tozasertib] + C[C@@H]1CCN(C(=O)CC#N)C[C@@H]1N(C)c1ncnc2[nH]ccc12 [CP690550] (first compound 0.03 µM, partner dose 5 µM) | 81.6 | 107 | 53.1 | 85.3 | 73.4 | 93.8 | 102 | 79.6 | 101 | 96.4 | 72.6 | 84.2 | 103 | 75.6 | 96.1 | 89.9 | 50.6 | 89.1 | 54.4 | 81.1
5 | N#CC[C@H](C1CCCC1)n1cc(-c2ncnc3[nH]ccc23)cn1 [ruxolitinib] + O=C(O)[C@@H]1[O][Sb](=[O])([O][Sb]2(=[O])[O][C@H]([C@H](O)CO)[C@H](O)[C@H](C(=O)O)[O]2)[O][C@H]([C@H](O)CO)[C@@H]1O [stibogluconate] (first compound 5 µM, partner dose 10 µM) | 73.8 | 99.7 | 96.1 | 142 | 105 | 64.2 | 71.6 | 85.3 | 74.1 | 68.4 | 104 | 107 | 105 | 74.6 | 70.5 | 120 | 128 | 78.5 | 80.4 | 103
6 | Cc1cc(Nc2cc(N3CCN(C)CC3)nc(Sc3ccc(NC(=O)C4CC4)cc3)n2)n[nH]1 [Tozasertib] + C#Cc1cccc(Nc2ncnc3cc(OCCOC)c(OCCOC)cc23)c1 [erlotinib] (first compound 0.03 µM, partner dose 4 µM) | 64.5 | 51.4 | 97.6 | 43.3 | 100 | 81.8 | 56.3 | 60.6 | 53.8 | 89.5 | 45.2 | 77.8 | 58.3 | 59.9 | 95.6 | 41.1 | 50 | 98.5 | 51.8 | 62.2
7 | Cc1cc(Nc2cc(N3CCN(C)CC3)nc(Sc3ccc(NC(=O)C4CC4)cc3)n2)n[nH]1 [Tozasertib] + C[C@@H](Oc1cc(-c2cnn(C3CCNCC3)c2)cnc1N)c1c(Cl)ccc(F)c1Cl [Crizotinib] (first compound 0.03 µM, partner dose 1 µM) | 77 | 76.4 | 85.2 | 64.3 | 126 | 81.2 | 55.6 | 58.1 | 81.8 | 74.5 | 35.1 | 65.2 | 85.7 | 67 | 72.4 | 67.9 | 41.4 | 55 | 51.5 | 64.5
8 | CC[C@]1(O)C[C@H]2CN(CCc3c([nH]c4ccccc34)[C@@](C(=O)OC)(c3cc4c(cc3OC)N(C=O)[C@H]3[C@@](O)(C(=O)OC)[C@H](OC(C)=O)[C@]5(CC)C=CCN6CC[C@]43[C@@H]65)C2)C1 [vincristine] + CC(C)CCN1c2nc(Nc3cc(F)c(O)c(F)c3)ncc2N(C)C(=O)C1C [BID1870] (first compound 0.0005 µM, partner dose 1 µM) | 8.9 | 50.6 | 30.1 | 55.3 | 29.4 | 42.3 | 32.4 | 16.6 | 34.2 | 34.3 | 8.17 | 15.7 | 33.8 | 39 | 55.7 | 136 | 65.6 | 34.3 |  | 31
9 | Cc1cc(Nc2cc(N3CCN(C)CC3)nc(Sc3ccc(NC(=O)C4CC4)cc3)n2)n[nH]1 [Tozasertib] + c1cc(-c2cnn3cc(-c4ccc(OCCN5CCCCC5)cc4)cnc23)ccn1 [Dorsomorphin] (first compound 0.03 µM, partner dose 2 µM) | 53.7 | 71.6 | 88 | 57.3 | 94.1 | 75.5 | 59.9 | 58.6 | 63.4 | 79.7 | 53.3 | 60.9 | 90.4 | 56.5 | 74.5 | 44.7 | 46.9 | 51.1 |  | 78
10 | CC[C@]1(O)C[C@H]2CN(CCc3c([nH]c4ccccc34)[C@@](C(=O)OC)(c3cc4c(cc3OC)N(C=O)[C@H]3[C@@](O)(C(=O)OC)[C@H](OC(C)=O)[C@]5(CC)C=CCN6CC[C@]43[C@@H]65)C2)C1 [vincristine] + Cc1ccc(NC(=O)c2cccc(N(C)C)c2)cc1NC(=O)c1ccc(O)cc1 [ZM336372] (first compound 0.0005 µM, partner dose 10 µM) | 108 | 99.3 | 84.1 | 74.7 | 95.7 | 84.6 | 97.4 | 68.4 | 44.9 | 43.7 | 95.5 | 74 | 67.3 | 54.3 | 81.6 | 67.1 | 42.9 | 46 | 72.2 | 53.7
11 | N#CC[C@H](C1CCCC1)n1cc(-c2ncnc3[nH]ccc23)cn1 [ruxolitinib] + COc1cc(Nc2ncc(F)c(Nc3ccc4c(n3)NC(=O)C(C)(C)O4)n2)cc(OC)c1OC [Tamatinib] (first compound 5 µM, partner dose 2 µM) | 73.6 | 79.5 | 69.5 | 63.4 | 30.8 | 62.8 | 48.6 | 70.3 | 17.2 | 46.4 | 69.2 | 68.9 | 96.1 | 39.8 | 73.8 | 72 | 60.3 | 55.7 | 19.6 | 68.3
12 | Cc1cc(Nc2cc(N3CCN(C)CC3)nc(Sc3ccc(NC(=O)C4CC4)cc3)n2)n[nH]1 [Tozasertib] + COc1ccc(COc2ccc(Cc3cnc(N)nc3N)cc2OC)cc1 [GW2580] (first compound 0.03 µM, partner dose 5 µM) | 76.9 | 81.8 | 97.9 | 78.5 | 78.1 | 94.4 | 58.2 | 72.7 | 83.8 | 89.6 | 69.2 | 93 | 104 | 89.5 | 73 | 95.3 | 64.7 | 73.8 |  | 87.4
13 | Cc1cc(Nc2cc(N3CCN(C)CC3)nc(Sc3ccc(NC(=O)C4CC4)cc3)n2)n[nH]1 [Tozasertib] + Cn1c(=O)n(-c2ccc(C(C)(C)C#N)cc2)c2c3cc(-c4cnc5ccccc5c4)ccc3ncc21 [NVP-BEZ235] (first compound 0.03 µM, partner dose 0.02 µM) | 60.7 | 78.9 | 78.1 | 77.4 | 87.4 | 78.9 | 81 | 71.2 | 68.2 | 86.3 | 47.8 | 88.3 | 76.8 | 69.9 | 86.9 | 74.7 | 75.9 | 62.4 | 58.4 | 78.5
14 | Cc1cc(Nc2cc(N3CCN(C)CC3)nc(Sc3ccc(NC(=O)C4CC4)cc3)n2)n[nH]1 [Tozasertib] + Nc1ncn([C@H]2C[C@H](O)[C@@H](CO)O2)c(=O)n1 [decitabine] (first compound 0.03 µM, partner dose 0.5 µM) | 77.1 | 49.6 | 66.1 | 69.3 | 76.1 | 73.3 | 59.4 | 62 | 55 | 65.5 | 47.9 | 77.8 | 79.5 | 62.6 | 92.9 | 49.9 | 40.6 | 57.2 | 54.1 | 68.4
15 | Cc1cc(Nc2cc(N3CCN(C)CC3)nc(Sc3ccc(NC(=O)C4CC4)cc3)n2)n[nH]1 [Tozasertib] + COc1cc(Nc2ncc(F)c(Nc3ccc4c(n3)NC(=O)C(C)(C)O4)n2)cc(OC)c1OC [Tamatinib] (first compound 0.03 µM, partner dose 2 µM) | 65.6 | 85.1 | 79.7 | 71 | 39.5 | 77.6 | 65.7 | 75.8 | 35.7 | 81.6 | 65.3 | 67.9 | 88.8 | 53.5 | 71.6 | 85.1 | 62.1 | 67.4 | 32.2 | 81.6
16 | Cc1cc(Nc2cc(N3CCN(C)CC3)nc(Sc3ccc(NC(=O)C4CC4)cc3)n2)n[nH]1 [Tozasertib] + C=C(c1ccc(C(=O)O)cc1)c1cc2c(cc1C)C(C)(C)CCC2(C)C [Bexarotene] (first compound 0.03 µM, partner dose 10 µM) | 77.7 | 79.7 | 98.3 | 86.9 | 143 | 89.7 | 69.9 | 76.6 | 65.7 | 105 | 58.7 | 81.6 | 111 | 109 | 104 | 78.1 | 84.7 | 69 | 71.1 | 95.5
